# Assay results published in the supplement of paper PMC8728848.
# The list shows a part of the results.
# B1: CaSRK1 (Capsicum annuum) (protein)
# chain: MALCKIFPFAFILLSCSCYLISGQRFDYPTANLSTTWINSVSAPHSIDYTDGSRIRAILLRGTFGPRYACGFYCNGNCESYLFAIFIVQTNSASQITSPAIGFPQVVWSANRNNPVKINSTLQLTAEGDLVLRDADGTLAWSTNTAGKSVAGLSLTDEGNLALFDSKNATVWQSFDHPTDALVPGQKLVPGMKLTASVSRTNWTAGGLFALSAIDNGLVAFVESNPPQKYFEASVGGSNTSGGSNYVKYLNGSLTLFTHSADTTELILISITPASSAQYMKLESNGHLKVYEWTSRGWREVDDLLTGFRGECNYPTVCGRYGICTMGQCSCPTSSSSRTYFRPIDVRRPSLGCSEVTKLTCQNTKKHSPLEVEDVDYFAFKAGISDTDLNTCKRACLEKCSCKAAFFRSGLNSSRTRGDCYLPTEIFSIMNNEKDRTRYDSVAFIKVQV
# How the values were obtained:
# Assay in all cases: glycan array binding signal (z-score within array); higher = stronger binding
# Conditions in all cases: glycan notation: IUPAC condensed, linker removed
# [1] = molecular target: Gal(b1-4)GlcNAc(b1-2)Man(a1-3)[Gal(b1-4)GlcNAc(b1-2)Man(a1-6)][Gal(b1-4)GlcNAc(b1-4)]Man(b1-4)GlcNAc(b1-4)[Fuc(a1-6)]GlcNAc
# Method in brief: (§1)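 The binding signal is a Z-score computed within each array and averaged over linkers. Arrays of the same protein sequence at different concentrations or buffers were also averaged together. Data originate from 3228 arrays in the Consortium for Functional Glycomics database, kept only where the protein sequence was available.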
# [2] = molecular target: Gal(b1-4)GlcNAc(b1-2)Man(a1-3)[Gal(b1-4)GlcNAc(b1-2)Man(a1-6)][GlcNAc(b1-4)]Man(b1-4)GlcNAc(b1-4)[Fuc(a1-6)]GlcNAc
# Method in brief: as §1
# [3] = molecular target: Gal(b1-4)GlcNAc(b1-2)Man(a1-3)[GlcNAc(b1-2)Man(a1-6)]Man(b1-4)GlcNAc(b1-4)GlcNAc
# Method in brief: as §1
# [4] = molecular target: Gal(b1-4)GlcNAc(b1-2)Man(a1-3)[GlcNAc(b1-4)][Gal(b1-4)GlcNAc(b1-2)Man(a1-6)]Man(b1-4)GlcNAc(b1-4)GlcNAc
# Method in brief: as §1
# [5] = molecular target: Gal(b1-4)GlcNAc(b1-2)Man(a1-3)[Man(a1-6)]Man(b1-4)GlcNAc(b1-4)GlcNAc
# Method in brief: as §1
# [6] = molecular target: Gal(b1-4)GlcNAc(b1-2)Man(a1-6)Man(b1-4)GlcNAc(b1-4)GlcNAc
# Method in brief: as §1
# [7] = molecular target: Gal(b1-4)GlcNAc(b1-2)Man(a1-6)[GlcNAc(b1-2)Man(a1-3)]Man(b1-4)GlcNAc(b1-4)GlcNAc
# Method in brief: as §1
# [8] = molecular target: Gal(b1-4)GlcNAc(b1-2)Man(a1-6)[Man(a1-3)]Man(b1-4)GlcNAc(b1-4)GlcNAc
# Method in brief: as §1
# [9] = molecular target: Gal(b1-4)GlcNAc(b1-2)[Gal(b1-4)GlcNAc(b1-4)]Man(a1-3)[Gal(b1-4)GlcNAc(b1-2)Man(a1-6)]Man(b1-4)GlcNAc(b1-4)GlcNAc
# Method in brief: as §1
# [10] = molecular target: Gal(b1-4)GlcNAc(b1-2)[Gal(b1-4)GlcNAc(b1-4)]Man(a1-3)[Gal(b1-4)GlcNAc(b1-2)[Gal(b1-4)GlcNAc(b1-6)]Man(a1-6)]Man(b1-4)GlcNAc(b1-4)GlcNAc
# Method in brief: as §1
# [11] = molecular target: Gal(b1-4)GlcNAc(b1-2)[Gal(b1-4)GlcNAc(b1-4)]Man(a1-3)[GlcNAc(b1-4)][Gal(b1-4)GlcNAc(b1-2)Man(a1-6)]Man(b1-4)GlcNAc(b1-4)GlcNAc
# Method in brief: as §1
# [12] = molecular target: Gal(b1-4)GlcNAc(b1-2)[Gal(b1-4)GlcNAc(b1-4)]Man(a1-3)[GlcNAc(b1-4)][Gal(b1-4)GlcNAc(b1-2)[Gal(b1-4)GlcNAc(b1-6)]Man(a1-6)]Man(b1-4)GlcNAc(b1-4)GlcNAc
# Method in brief: as §1
# [13] = molecular target: Gal(b1-4)GlcNAc(b1-2)[Gal(b1-4)GlcNAc(b1-6)]Man(a1-6)[Gal(b1-4)GlcNAc(b1-2)Man(a1-3)]Man(b1-4)GlcNAc(b1-4)GlcNAc
# Method in brief: as §1
# [14] = molecular target: Gal(b1-4)GlcNAc(b1-2)[Gal(b1-4)GlcNAc(b1-6)]Man(a1-6)[Gal(b1-4)GlcNAc(b1-2)Man(a1-3)]Man(b1-4)GlcNAc(b1-4)[Fuc(a1-6)]GlcNAc
# Method in brief: as §1
# [15] = molecular target: Gal(b1-4)GlcNAc(b1-2)[Gal(b1-4)GlcNAc(b1-6)]Man(a1-6)[GlcNAc(b1-4)][Gal(b1-4)GlcNAc(b1-2)Man(a1-3)]Man(b1-4)GlcNAc(b1-4)GlcNAc
# Method in brief: as §1
# [16] = molecular target: Gal(b1-4)GlcNAc(b1-2)[Gal(b1-4)GlcNAc(b1-6)]Man(a1-6)[GlcNAc(b1-4)][Gal(b1-4)GlcNAc(b1-2)[Gal(b1-4)GlcNAc(b1-4)]Man(a1-3)]Man(b1-4)GlcNAc(b1-4)[Fuc(a1-6)]GlcNAc
# Method in brief: as §1
# [17] = molecular target: Gal(b1-4)GlcNAc(b1-3)Gal(b1-3)GalNAc
# Method in brief: as §1
# [18] = molecular target: Gal(b1-4)GlcNAc(b1-3)Gal(b1-3)GlcNAc
# Method in brief: as §1
# [19] = molecular target: Gal(b1-4)GlcNAc(b1-3)Gal(b1-4)Glc
# Method in brief: as §1
binder,measurement,setting,value
B1,glycan array binding signal (z-score),[1],-0.209
same,glycan array binding signal (z-score),[2],-0.478
same,glycan array binding signal (z-score),[3],0.031
same,glycan array binding signal (z-score),[4],-0.545
same,glycan array binding signal (z-score),[5],-0.254
same,glycan array binding signal (z-score),[6],0.09
same,glycan array binding signal (z-score),[7],-0.457
same,glycan array binding signal (z-score),[8],-0.537
same,glycan array binding signal (z-score),[9],-0.579
same,glycan array binding signal (z-score),[10],-0.439
same,glycan array binding signal (z-score),[11],-0.382
same,glycan array binding signal (z-score),[12],-0.384
same,glycan array binding signal (z-score),[13],-0.454
same,glycan array binding signal (z-score),[14],-0.463
same,glycan array binding signal (z-score),[15],-0.552
same,glycan array binding signal (z-score),[16],-0.469
same,glycan array binding signal (z-score),[17],-0.446
same,glycan array binding signal (z-score),[18],-0.464
same,glycan array binding signal (z-score),[19],-0.158
